{"source": "PubChem BioAssay AID686970", "about": "(National Center for Advancing Translational Sciences (NCATS), 2013)", "note": "Out of some 360,000 compounds screened, about 6,000 (1.7%) were called active. The shares of active, inactive and inconclusive entries below differ from those in the screen. Calls follow the shape of the dose curve; as a rule, active = well fitted cell-killing curve with a large enough effect; inconclusive = small, poorly fitted or top-dose-only effect, or effect the other way; inactive = flat fitted curve, though single readings scatter. Potencies of inconclusive entries are left out as doubtful fits.", "data": [{"test": "qHTS for induction of synthetic lethality in tumor cells producing 2HG: qHTS for the HT-1080-NT fibrosarcoma cell line;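 also: NT is the 2HG producing partner of a matched IDH1 knockdown line; nearly all actives have a fitted effect of over 55% in size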; also: potency is read from the fitted curve at half-maximal effect; tags tell the direction and shape of the fitted curve;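 as to activity, negative = less viability: 0% = DMSO-treated cells and -100% = media-only wells without cells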", "conditions": "HT-1080-NT fibrosarcoma viability, CellTiter-Glo ATP luminescence, 48 h; activity, negative = less viability: at 46.1 µM (top of the series) unless noted", "method_in_brief": "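HT-1080-NT; 750 cells/well; 5% FBS RPMI; 48 h compound, 37 degrees C; CellTiter-Glo luminescence; curve fitting and curve-class assignment.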", "values": [{"molecule": "COc1ccc(N2CCN(C3CCCN(C(=O)CCN4CCCCO4)C3)CC2)cc1", "note": "(stereo not given)", "activity, negative = less viability": "inconclusive: 30.9%"}, {"molecule": "COc1cc(C)c(C(C)C)cc1S(=O)(=O)n1cnc(C)c1", "Potency": "inconclusive [cytotoxic, partial curve, poor fit]"}, {"molecule": "COc1ccc(CNC(=O)Cn2cccc2C(=O)c2ccccc2C)cc1", "activity, negative = less viability": "inactive: 14.7%"}, {"molecule": "COCCNC(=O)CN(C(=O)Cn1nnc2ccccc21)c1ccccc1C", "Potency": "inconclusive [cytotoxic, single point]"}, {"molecule": "CC(NCC(O)COCCC12CC3CC(CC(C3)C1)C2)c1ccccc1", "note": "(stereo not given)", "Potency": "inconclusive [cytotoxic, single point]"}, {"molecule": "CCN(CC)CCNC(=O)c1cc2c(=O)n(C)c3ccccc3c2s1", "Potency": "inconclusive [cytotoxic, single point]"}, {"molecule": "COc1ccc(CCNC(=O)C(=O)NCc2ccccc2)cc1OC", "Potency": "active: 16.4 µM"}, {"molecule": "Cc1cc(Nc2cccc(Cl)c2)nc(N2CCOCC2)n1", "activity, negative = less viability": "inactive: -7.88%"}, {"molecule": "Cc1cccc(C(=O)NC(=S)NNC(=O)Cc2ccccc2)c1", "Potency": "inconclusive [cytotoxic, full curve, poor fit]"}, {"molecule": "COc1ccc(-c2nc3ccccc3c(=O)[nH]2)cc1", "Potency": "inconclusive [cytotoxic, single point]"}, {"molecule": "c1ccc(-c2ccc(-c3[nH]ncc3CN3CCC(N4CCSCC4)CC3)cc2)cc1", "activity, negative = less viability": "inactive: -4.23%"}, {"molecule": "CC(=O)NCCC(=O)Nc1cc(S(=O)(=O)N2CCCCC2)ccc1N1CCN(C)CC1", "activity, negative = less viability": "inactive: 0.624%"}, {"molecule": "CCN1CCCC1CNC(=O)c1ccc2c(c1)NC(=O)/C(=C\\c1ccccc1F)S2", "note": "(stereo not given)", "Potency": "inconclusive [cytotoxic, single point]"}, {"molecule": "Clc1cccc(Nc2nc(-c3cccnc3)cs2)c1", "Potency": "inconclusive [cytotoxic, single point]"}, {"molecule": "CCOC(=O)C1(CCOc2ccccc2)CCN(Cc2cccc(OC)c2OC)CC1", "Potency": "inconclusive [cytotoxic, single point]"}, {"molecule": "CCOC(=O)c1sc(N(Cc2ccccc2)C(=O)CCl)nc1C", "Potency": "inconclusive [cytotoxic, single point]"}, {"molecule": "O=C(C[C@@H]1C[C@@H]2c3cc(NS(=O)(=O)c4ccc(F)cc4)ccc3O[C@@H]2[C@@H](CO)O1)NC1CCCCC1", "activity, negative = less viability": "inactive: -10.2%"}, {"molecule": "Cc1ccc2nc(-c3ccco3)c(Cc3cccc(Cl)c3)n2c1", "Potency": "inconclusive [cytotoxic, single point]"}, {"molecule": "COC(=O)c1c(N)n(-c2ccc(NC(C)=O)cc2)c2nc3ccccc3nc12", "activity, negative = less viability": "inactive: 9.35%"}, {"molecule": "COCCCn1c2nc3ccccc3nc2c2c(=O)n(-c3ccccc3OC)cnc21", "activity, negative = less viability": "inactive: -1.14%"}]}]}
